Assay results reported in PubChem BioAssay AID1347073 (National Center for Advancing Translational Sciences (NCATS), 2019).
Out of some 45,000 compounds screened, about 200 (0.44%) were called active. Inconclusive results (about 7%) are left out. Calls follow the shape of the dose curve; as a rule, active = well fitted activation curve with a large enough effect; inconclusive = small, poorly fitted or top-dose-only effect; inactive = no such curve, though single readings can be large or run the other way. This is one part of the list.

Assay: qHTS of TDP-43 Inhibitors: NCGC Sytravon Library Screen; also: 0% is about no effect; nearly all actives have a fitted effect of over 55% in size
Conditions: yeast TDP-43 toxicity rescue, BacTiter-Glo growth, 24 h; series mostly up to 46.1 µM; growth rescue (activation): at the top concentration
Outline: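 TDP-43-expressing yeast, pregrown in raffinose, seeded at OD600 0.02 in galactose medium with compound for 24 hr at 30 deg C. Growth read by BacTiter-Glo luminescence, so rescue of toxicity appears as activation.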

Row | SMILES | growth rescue (activation)
1 | O=C(CCCSc1ccccc1)Nc1nc(-c2ccccn2)cs1 | inactive: -81%
2 | c1ccc(-c2nnc(Cn3c4ccccc4c4nc5ccccc5nc43)o2)cc1 | inactive: 13.7%
3 | CCOc1ccc(N2CC(C(=O)Nc3ccccn3)CC2=O)cc1 (stereo not drawn) | inactive: 4.46%
4 | COc1ccc(CN2CCN(C(=O)c3ccc(S(=O)(=O)N4CCCCCC4)cc3)CC2)cc1 | inactive: 4.67%
5 | COc1ccc(C2CC(c3ccccc3)=NN2C(=O)COC(=O)c2cnc(Cl)c(Cl)c2)cc1 (stereo not drawn) | inactive: 12.4%
6 | Cc1c(C(=O)Nc2nc3ccccc3[nH]2)oc2c(Cl)cccc12 | inactive: -5.26%
7 | O=C1/C(=C/c2ccncc2)SC(=S)N1C1CCCCC1 | inactive: 16.6%
8 | CCOC(=O)N1CCN(C(=O)Cn2cc3c(n2)CCCC3)CC1 | inactive: -0.579%
9 | NC(=O)c1nsc(C(=O)N(c2cccc(F)c2)C(C(=O)NC2CCCC2)c2ccco2)c1N (stereo not drawn) | inactive: 6.11%
10 | O=C(O)c1ccc(N2C(=O)c3cccc4c(C(=O)O)ccc(c34)C2=O)cc1 | inactive: -60.6%
11 | COc1ccc(S(=O)(=O)/N=C2/NC(=O)/C(=C\c3ccco3)S2)cc1 | inactive: 8.25%
12 | CN(Cc1ccsc1)C(=O)Cn1cc(Br)ccc1=O | inactive: -17.8%
13 | CS(=O)(=O)c1ccc2nc(NC(=O)CN3CCC(Cc4ccccc4)CC3)sc2c1 | inactive: -6.74%
14 | CCOC(=O)c1c(C)[nH]c(C(=O)COC(=O)[C@H](C)NC(=O)c2ccccc2Cl)c1C | inactive: 25.5%
15 | CC(=O)N1CCc2cc(S(=O)(=O)NC(CC(C)C)C(=O)Nc3cc(C(=O)O)ccc3C)ccc21 (stereo not drawn) | inactive: 23.9%
16 | CCCCC(O)(CCCC)C(=O)NNc1ccccc1 | inactive: 8.68%
17 | CCOC(=O)c1c(NC(=O)C2C3C=CC(C3)C2(C)C(=O)O)sc2c1CCCC2 (stereo not drawn) | inactive: 17.2%
18 | Cc1cc(N)ccc1NC(=O)CN1CCOCC1 | inactive: 4.74%
19 | Cc1sc2nc(C(C)C)nc(SCC(=O)N3CCOCC3)c2c1C | inactive: 35.4%
20 | O=c1[nH]c2c(Br)cnc([N+](=O)[O-])c2[nH]1 | inactive: -3.21%
21 | CCOc1ccc(-c2noc([C@@H]3O[C@H](CO)[C@@H](O)[C@H]3O)n2)cc1 | inactive: 3.35%
22 | COC(=O)c1ccc(CN2CCCC(C(=O)Nc3cccc(-n4cnnn4)c3)C2)cc1 (stereo not drawn) | inactive: 14.2%
23 | Cc1ccc(S(=O)(=O)N2CCOCC2)cc1NC(=O)CNc1ccccc1N1CCCC1=O | inactive: 16.2%
24 | CC(C)c1nnc(NC(=O)C2CCN(C(=O)Nc3ccc(Cl)cc3)CC2)s1 | inactive: 0.792%
25 | O=c1oc2ccccc2cc1-c1csc(Cc2nc(-c3ccc(Cl)cc3)cs2)n1 | inactive: 2.5%
26 | O=C(COC(=O)c1ccc2ccccc2c1O)Nc1ccccc1 | inactive: 6.97%
27 | CC[C@H](C)[C@H](NC(N)=O)C(=O)NCCc1ccc(OC)cc1 | inactive: 6.19%

Row | SMILES | growth rescue (activation)
28 | Cc1ccc(-n2c(SCC(=O)N(C)C3CCS(=O)(=O)C3)nc3ccccc3c2=O)cc1 (stereo not drawn) | inactive: 10.7%
29 | COc1ccc(CN(C)CC(O)COc2ccc(C(=O)c3ccccc3)cc2)c(OC)c1OC (stereo not drawn) | inactive: -0.344%
30 | CCCCCCOc1ccc(C(CC(=O)O)C(N)=O)cc1 (stereo not drawn) | inactive: 12.3%
31 | COc1ccccc1NC(=O)/C(=N/OCc1ccc(F)cc1)C(C)=O | inactive: 22.2%
32 | CCC(CC)NCc1ccc2c(c1)c1ccccc1n2CC | inactive: -0.838%
33 | O=C(/C=C/c1cn(-c2ccccc2)nc1-c1ccccc1)Nc1ccc(C(=O)O)cc1 | inactive: -17.2%
34 | Cc1onc(-c2ccccc2)c1C(=O)N1CCOCC1 | inactive: -2.82%
35 | O=C(Nc1ncccn1)c1cc(-c2ccc(F)cc2)nc2ccccc12 | inactive: 6.76%
36 | Cc1ccccc1/C=N/n1c(-c2cc(-c3ccccc3)n[nH]2)n[nH]c1=S | inactive: 12.6%
37 | Oc1ccc2n[nH]nc2c1 | inactive: 4.54%
38 | O=C(COc1ccc(Cl)cc1Cl)NNC(=O)c1cccnc1 | inactive: -0.607%
39 | CC(C)=NNc1nc2c(c(=O)[nH]c(=O)n2C)n1CCc1ccccc1 | inactive: -11%
40 | CS(=O)(=O)N1CCCC(C(=O)N2CCN(c3cccc(Cl)c3)CC2)C1 (stereo not drawn) | inactive: 13.9%
41 | O=C(Nc1cccnc1Cl)c1cccs1 | inactive: 14.3%
42 | Cc1ccc(N2C(=O)C3Sc4[nH]c(=O)sc4C(c4ccccc4)C3C2=O)cc1 (stereo not drawn) | inactive: -14.3%
43 | Cc1cc(C)c(-c2csc(Cc3nc(-c4cc5ccccc5oc4=O)cs3)n2)cc1C | inactive: 5.78%
44 | Nc1cccc2c(=O)c3ccccc3[nH]c12 | inactive: 1.55%
45 | CC(=O)NC(c1cccc(F)c1)c1nc(-c2cc(F)cc(Cl)c2)cs1 (stereo not drawn) | inactive: 1.02%
46 | CCc1nc2c(OCc3ccc(F)cc3)cccn2c1N(C)C(=O)c1ccc(C)cc1 | inactive: 6.6%
47 | COc1cc(C)ccc1OCCOCCOc1cc(C)c(C)cc1Br | inactive: 2.97%
48 | COc1ccc(CC(N)c2csc(NC(=O)Nc3cc(OC)ccc3OC)n2)cc1 (stereo not drawn) | inactive: 11.1%
49 | COc1ccc(/C=c2/sc3nc(-c4ccccc4)c(-c4ccccc4)n3c2=O)cc1 | inactive: -4.06%
50 | Cc1nn(CC(=O)N(CC(C)C)C2CCS(=O)(=O)C2)c(C)c1[N+](=O)[O-] (stereo not drawn) | inactive: 5.62%
51 | O=C(NCc1ccc(F)cc1)C1(S(=O)(=O)c2ccc(Cl)cc2)CC1 | inactive: 3.57%
52 | O=C(NCc1ccco1)c1cccc(S(=O)(=O)N2CCCC2)c1 | inactive: 15%
53 | CCCS(=O)(=O)NC(=O)C1(C)CCN(C(=O)c2c(F)ccc(C)c2F)C1 (stereo not drawn) | inactive: -6.66%
